{
  "source": "PubChem BioAssay AID1347417",
  "about": "(National Center for Advancing Translational Sciences (NCATS), 2020)",
  "note": "About 5,300 (4.4%) of roughly 120,000 compounds were called active. Inconclusive means that the source gave no clear call. Such entries were picked first, then a sample of the others. Calls come from the whole dose curve; as a rule, active = well fitted inhibition curve with a large enough effect; inconclusive = small, poorly fitted or top-dose-only effect; inactive = no such curve, though single readings can be large or run the other way. Where the call is inconclusive, the potency comes from a doubtful curve fit. Potency is the fitted concentration of half-maximal effect; tags give direction and shape of the fitted curve.",
  "data": [
    {"assay": "qHTS Primary assay for Inhibitors of Plasmodium falciparum Dd2 growth in vitro; note: nearly all actives have a fitted effect of over 65% in size;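 for activity, negative = inhibition: plate controls were DMSO vehicle for no effect and reference drug for full effect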", "settings": "P. falciparum Dd2 growth, SYBR Green, 72 h; activity, negative = inhibition: at 28.9 µM (top of the series) unless noted; series mostly up to 28.9 µM", "procedure,_shortened": "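Readout: SYBR Green fluorescence, 485 nm excitation, 535 nm emission, after ~16 h lysis at 37C. Before that, Dd2-infected red cells (2.5% hematocrit) grew 72 h with compound, 29 uM top final concentration.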", "values": [
      {"smiles": "COC(=O)c1ccc(NC(=O)N2[C@H]3CC[C@@H]2c2cnc(-c4ccc(F)cc4)nc2C3)cc1", "Potency": "active: 7.08 µM"},
      {"smiles": "Cc1noc(C)c1S(=O)(=O)N1CCC(N(CCC(C)C)C2CCOCC2)CC1", "Potency": "active: 12.6 µM"},
      {"smiles": "O=C(Nc1cccc(C(F)(F)F)c1)N[C@H]1[C@H](O)[C@@H](N2CCOCC2)[C@@H]2OC[C@H]1O2", "activity, negative = inhibition": "inactive: 15% [at 44.1 µM]"},
      {"smiles": "O=C1Cc2c(-c3ccccc3Oc3ccccc3)n[nH]c2CN1Cc1ccccn1", "Potency": "inconclusive: 10 µM [inhibitor, partial curve]"},
      {"smiles": "Cc1c(Cl)cccc1NC(=O)CN1C(=O)NC(c2ccc(Cl)cc2)C2=C1COC2=O", "note": "(configuration not stated)", "activity, negative = inhibition": "inactive: -26%"},
      {"smiles": "O=C(Nc1ccccc1)N1CCn2c(nn(-c3ccc(C(F)(F)F)cc3)c2=O)C1", "Potency": "inconclusive: 10 µM [inhibitor, single point]"},
      {"smiles": "COc1ccc(CC(=O)N2CCc3c(nc4cc(-c5ccccc5Cl)[nH]n4c3=O)C2)cc1", "Potency": "inconclusive: 3.55 µM [inhibitor, full curve]"},
      {"smiles": "COc1ccc(-c2nc(C(C)C)nc3c2CCN([S+](=O)([O-])c2cccs2)CC3)cc1", "Potency": "inconclusive: 6.31 µM [inhibitor, partial curve, poor fit]"},
      {"smiles": "O=C(NCc1ccccc1)Nc1cccc(-c2nnc3n2CCCC3)c1", "Potency": "inconclusive: 7.08 µM [inhibitor, partial curve, poor fit]"},
      {"smiles": "O=C([C@@H]1C[C@H](Oc2cccnc2)CN1S(=O)(=O)c1ccccc1)N1CCOCC1", "activity, negative = inhibition": "inactive: -19.2%"},
      {"smiles": "COCc1cn(C[C@H]2C[C@@H](NC(=O)Cc3cccc(OC)c3)[C@H](O)[C@@H]2O)nn1", "activity, negative = inhibition": "inactive: -15% [at 44.1 µM]"},
      {"smiles": "COc1ccc(C(=O)N2CCC3(CC2)OCC(C(=O)NC2CC2)N3C(=O)c2cccc(C)c2)cc1", "note": "(configuration not stated)", "activity, negative = inhibition": "inactive: 5.43%"},
      {"smiles": "CCCCN(C)C(=O)C1CCC(CNS(=O)(=O)c2ccc3c(c2)CC(C)N3C(C)=O)CC1", "note": "(configuration not stated)", "Potency": "inconclusive: 17.8 µM [inhibitor, single point]"},
      {"smiles": "CCOCC1(C)COc2ccc(C(=O)N(C)c3ccccc3)cc2N1", "note": "(configuration not stated)", "outcome": "inactive [at 44.1 µM]"},
      {"smiles": "O=C(c1ccccc1OCC1CCCN(C2CCCCC2)C1)N1CCCC1", "note": "(configuration not stated)", "Potency": "inconclusive: 3.16 µM [inhibitor, partial curve, poor fit]"},
      {"smiles": "CCN(CC)C(=O)Cn1c(SCCOc2ccc(Cl)cc2)nc2ccccc21", "Potency": "inconclusive: 17.8 µM [inhibitor, single point]"},
      {"smiles": "Cc1cccc(CNC(=O)[C@H]2CCC[C@H]2NC(=O)c2cnc(C)cn2)c1", "activity, negative = inhibition": "inactive: -5.05%"},
      {"smiles": "CC(=O)c1cccc(NC(=O)c2cc3c(n2C)CCN(Cc2cccc(F)c2)C3)c1", "Potency": "inconclusive: 2.51 µM [inhibitor, partial curve, poor fit]"},
      {"smiles": "O=C(CC1COCCN1)N(Cc1cccnc1)Cc1cccnc1", "note": "(configuration not stated)", "activity, negative = inhibition": "inactive: 4.45%"},
      {"smiles": "Cc1n[nH]c(C)c1S(=O)(=O)N(CC(=O)NCc1ccccc1Cl)c1ccc(C(C)C)cc1", "Potency": "inconclusive: 7.94 µM [inhibitor, single point]"},
      {"smiles": "Cc1nnc(NC(=O)C2CC(=O)N(c3n[nH]c4cccc(F)c34)C2)s1", "note": "(configuration not stated)", "activity, negative = inhibition": "inactive: -15.5%"},
      {"smiles": "CCN1CCC2(CCC1=O)CN(Cc1cccc(Cl)c1F)CCN2C", "note": "(configuration not stated)", "Potency": "inconclusive: 3.16 µM [inhibitor, single point]"},
      {"smiles": "O=C(Nc1ccc2c(c1)N(C1CCCC1)C(=O)c1ccccc1S2)c1cccc(F)c1", "Potency": "inconclusive: 11.2 µM [inhibitor, single point]"},
      {"smiles": "COc1ccc(N2C(=O)C3(CCCCC3)C2C(=O)NCCc2ccncc2)cc1", "note": "(configuration not stated)", "activity, negative = inhibition": "inactive: 9.99%"},
      {"smiles": "COc1cccc(CNC(=O)C2CCCN(c3ncnc4onc(-c5ccc(F)cc5)c34)C2)c1", "note": "(configuration not stated)", "Potency": "inconclusive: 6.31 µM [inhibitor, partial curve]"},
      {"smiles": "Cc1c(C)n(Cc2ccccc2)c2ccc(C(=O)NCCc3ccccc3Cl)cc12", "activity, negative = inhibition": "inactive: -18.1%"},
      {"smiles": "CCCCc1cc(C[C@@H]2C[C@H](NC(=O)c3ccco3)C2(C)C)no1", "Potency": "inconclusive: 15.8 µM [inhibitor, partial curve, poor fit]"},
      {"smiles": "CC(=O)NCC(=O)N1Cc2ccccc2CC2(CCCCN2CC2CCCC2)C1", "note": "(configuration not stated)", "Potency": "inconclusive: 10 µM [inhibitor, single point]"},
      {"smiles": "CCN(Cc1ccc(C)o1)C(=O)c1ccc2nc(-c3ccc(F)cc3)cn2c1", "activity, negative = inhibition": "inactive: 3.99%"},
      {"smiles": "c1ccc(OCCNc2nc(-c3cccnc3)nc3c2CCNCC3)cc1", "Potency": "active: 2.24 µM"},
      {"smiles": "Cc1ccc(C)n1-c1c(C(=O)NCCCN2CCN(c3ccc(F)cc3)CC2)sc2ncccc12", "Potency": "inconclusive: 10 µM [inhibitor, single point]"},
      {"smiles": "Cc1cn2nc(C(=O)N3CCC(C(=O)Nc4ccccc4)CC3)cc2c(=O)[nH]1", "Potency": "inconclusive: 5.62 µM [inhibitor, partial curve]"},
      {"smiles": "O=C(C1CCN(S(=O)(=O)Cc2ccccc2)CC1)N1CCN(c2ccc(F)cc2)CC1", "Potency": "inconclusive: 11.2 µM [inhibitor, single point]"},
      {"smiles": "Cc1ccc(C2CC(=O)N(Cc3ccccc3)c3c2c(C)nn3-c2nc(C)cc(C)n2)cc1", "note": "(configuration not stated)", "Potency": "inconclusive: 11.2 µM [inhibitor, single point]"},
      {"smiles": "COc1ccc(OC2CCN(C(C)=O)CC2)c(C(=O)NCCc2ccccc2OC)c1", "Potency": "inconclusive: 20 µM [inhibitor, single point]"},
      {"smiles": "CC(C)C[C@@H]1N[C@H](C(=O)NCCOc2ccccc2)Cc2c[nH]c3cccc1c23", "Potency": "active: 12.6 µM"},
      {"smiles": "O=C(C1CCCN(S(=O)(=O)c2ccc(Br)s2)C1)N1CCN(c2ccc(F)cc2)CC1", "note": "(configuration not stated)", "Potency": "inconclusive: 17.8 µM [inhibitor, single point]"},
      {"smiles": "Cc1cc(NC(=O)CSc2nc3c([nH]c4ccccc43)c(=O)n2-c2ccccc2)no1", "activity, negative = inhibition": "inactive: -25.8%"},
      {"smiles": "COc1cccc(-c2cc3c(=O)n(CCNC(=O)c4ccc(C(C)(C)C)cc4)ccn3n2)c1", "Potency": "active: 1.12 µM"},
      {"smiles": "CCc1ccc(NC(=O)c2ccc(F)c(S(=O)(=O)N(C)C3CCCCC3)c2)cc1", "Potency": "active: 11.2 µM"},
      {"smiles": "Cc1ccccc1OCc1ccc(-c2nc(C#N)c(N3CCN(C)CC3)o2)o1", "Potency": "inconclusive: 6.31 µM [inhibitor, partial curve, poor fit]"},
      {"smiles": "CC(C)c1ccc(CC(=O)N2CCCc3ncc(C(=O)NCC4CCCO4)cc32)cc1", "note": "(configuration not stated)", "Potency": "inconclusive: 31.6 µM [inhibitor, single point]"}
    ]}
  ]
}
